Results reported in the supplement of paper PMC8728848.
This is one part of the list.

Experiments:
Test in all cases: glycan array binding signal (z-score within array); higher = stronger binding
Conditions in all cases: glycan notation: IUPAC condensed, linker removed; mutation: E227G
[1] = target: GlcNAc(b1-3)Gal(b1-3)GalNAc
Method in brief: (§1)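 Glycan array data were curated from 3228 arrays in the Consortium for Functional Glycomics database and kept only where the protein sequence was available. Glycan names were converted to IUPAC-condensed notation, and columns mapping to the same glycan were averaged. The binding signal is a within-array Z-score, averaged across arrays of the same protein sequence at different concentrations or buffers and across linkers. Negative Z-scores can be read as non-binding.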

GlcNAc(b1-3)Gal(b1-4)Glc = target: GlcNAc(b1-3)Gal(b1-4)Glc
Method in brief: as §1

[2] = target: GlcNAc(b1-3)Gal(b1-4)GlcNAc
Method in brief: as §1

[3] = target: GlcNAc(b1-3)Gal(b1-4)GlcNAc(b1-2)Man(a1-3)[GlcNAc(b1-3)Gal(b1-4)GlcNAc(b1-2)Man(a1-6)]Man(b1-4)GlcNAc(b1-4)GlcNAc
Method in brief: as §1

[4] = target: GlcNAc(b1-3)Gal(b1-4)GlcNAc(b1-2)Man(a1-3)[GlcNAc(b1-3)Gal(b1-4)GlcNAc(b1-2)Man(a1-6)]Man(b1-4)GlcNAc(b1-4)[Fuc(a1-6)]GlcNAc
Method in brief: as §1

[5] = target: GlcNAc(b1-3)Gal(b1-4)GlcNAc(b1-2)[GlcNAc(b1-3)Gal(b1-4)GlcNAc(b1-6)]Man(a1-6)[GlcNAc(b1-3)Gal(b1-4)GlcNAc(b1-2)Man(a1-3)]Man(b1-4)GlcNAc(b1-4)GlcNAc
Method in brief: as §1

[6] = target: GlcNAc(b1-3)Gal(b1-4)GlcNAc(b1-3)Gal(b1-4)GlcNAc
Method in brief: as §1

[7] = target: GlcNAc(b1-3)Gal(b1-4)GlcNAc(b1-3)Gal(b1-4)GlcNAc(b1-2)Man(a1-3)[GlcNAc(b1-3)Gal(b1-4)GlcNAc(b1-3)Gal(b1-4)GlcNAc(b1-2)Man(a1-6)]Man(b1-4)GlcNAc(b1-4)GlcNAc
Method in brief: as §1

[8] = target: GlcNAc(b1-3)Gal(b1-4)GlcNAc(b1-3)Gal(b1-4)GlcNAc(b1-2)Man(a1-3)[GlcNAc(b1-3)Gal(b1-4)GlcNAc(b1-3)Gal(b1-4)GlcNAc(b1-2)Man(a1-6)]Man(b1-4)GlcNAc(b1-4)[Fuc(a1-6)]GlcNAc
Method in brief: as §1

[9] = target: GlcNAc(b1-3)Gal(b1-4)GlcNAc(b1-3)Gal(b1-4)GlcNAc(b1-2)[GlcNAc(b1-3)Gal(b1-4)GlcNAc(b1-3)Gal(b1-4)GlcNAc(b1-6)]Man(a1-6)[GlcNAc(b1-3)Gal(b1-4)GlcNAc(b1-3)Gal(b1-4)GlcNAc(b1-2)Man(a1-3)]Man(b1-4)GlcNAc(b1-4)[Fuc(a1-6)]GlcNAc
Method in brief: as §1

[10] = target: GlcNAc(b1-3)Gal(b1-4)GlcNAc(b1-3)Gal(b1-4)GlcNAc(b1-3)Gal(b1-4)GlcNAc(b1-2)Man(a1-3)[GlcNAc(b1-3)Gal(b1-4)GlcNAc(b1-3)Gal(b1-4)GlcNAc(b1-3)Gal(b1-4)GlcNAc(b1-2)Man(a1-6)]Man(b1-4)GlcNAc(b1-4)GlcNAc
Method in brief: as §1

[11] = target: GlcNAc(b1-3)Gal(b1-4)GlcNAc(b1-3)Gal(b1-4)GlcNAc(b1-3)Gal(b1-4)GlcNAc(b1-2)Man(a1-3)[GlcNAc(b1-3)Gal(b1-4)GlcNAc(b1-3)Gal(b1-4)GlcNAc(b1-3)Gal(b1-4)GlcNAc(b1-2)Man(a1-6)]Man(b1-4)GlcNAc(b1-4)[Fuc(a1-6)]GlcNAc
Method in brief: as §1

[12] = target: GlcNAc(b1-3)Gal(b1-4)GlcNAc(b1-3)Gal(b1-4)GlcNAc(b1-3)Gal(b1-4)GlcNAc(b1-2)[GlcNAc(b1-3)Gal(b1-4)GlcNAc(b1-3)Gal(b1-4)GlcNAc(b1-3)Gal(b1-4)GlcNAc(b1-6)]Man(a1-6)[GlcNAc(b1-3)Gal(b1-4)GlcNAc(b1-3)Gal(b1-4)GlcNAc(b1-3)Gal(b1-4)GlcNAc(b1-2)Man(a1-3)]Man(b1-4)GlcNAc(b1-4)[Fuc(a1-6)]GlcNAc
Method in brief: as §1

[13] = target: GlcNAc(b1-3)Gal(b1-4)GlcNAc(b1-3)Gal(b1-4)GlcNAc(b1-3)Gal(b1-4)GlcNAc(b1-3)Gal(b1-4)GlcNAc(b1-2)Man(a1-3)[GlcNAc(b1-3)Gal(b1-4)GlcNAc(b1-3)Gal(b1-4)GlcNAc(b1-3)Gal(b1-4)GlcNAc(b1-3)Gal(b1-4)GlcNAc(b1-2)Man(a1-6)]Man(b1-4)GlcNAc(b1-4)GlcNAc
Method in brief: as §1

[14] = target: GlcNAc(b1-3)Gal(b1-4)GlcNAc(b1-3)Gal(b1-4)GlcNAc(b1-3)Gal(b1-4)GlcNAc(b1-3)Gal(b1-4)GlcNAc(b1-2)Man(a1-3)[GlcNAc(b1-3)Gal(b1-4)GlcNAc(b1-3)Gal(b1-4)GlcNAc(b1-3)Gal(b1-4)GlcNAc(b1-3)Gal(b1-4)GlcNAc(b1-2)Man(a1-6)]Man(b1-4)GlcNAc(b1-4)[Fuc(a1-6)]GlcNAc
Method in brief: as §1

B1: Epa1-NP-mutant-E227G (Candida glabrata), Q6VBJ0 (protein)
chain: MILNPALFLNKCVCIYTTLILLLLTNGGYATSSNDISLASKDPTTFPLGCSPDITTPKKGLSMELYSYDFRKKGSYPCWDAAYLDPNYPRTGYKSHRLLAKVDGVTGNINFYYHATKGCTPQLGHLPASYNYPKPLTMTNFTMLLYGYFRPKVTGFHTFTISADDLLFVNFGAGNAFDCCRRDSSADHFGNYQAYAIWGSKTAKDELTVHLDAGVYYPIRLFYNNRGYDGALSFTFKTESNENTVSDFSEYFFSLDDTEEGCPGLISYDSSCASVKTSKIIGIDYHTETPNENLVPITKTIYHLGIPCTGTTTTPLCGSGFYDPLANKCVTINTSSTSSVTKTTSHTTSKEVSFHSSISSQKTLIPKSIPSPYGPIKSQSIPTEMETSSEISSSEYAFSDVISTPSHSPYTKKHSSLNSSSYTSTVIHSLTSYSISQGIFSTSLSEQNITSKSSTDKFSTATSMSNNITQSSIIISQFSTNNENYTTTSMHTSSDKISTETLNNSISTTTSILFSNSSTILKNNTTIISSDKDTHYHPVNPTIVCSTNKTEIICASITQPSISNSNNHWSSSVLKFNSTTVRSTLPSSAGSNETSINVPFSSSTESNTSTSSTSTSNSKMVRSTLPSSAGSNETSISVPFSSSTESNTSTSSTSTSNSKMVRSTLPSSAGSNETSINVPFSSSTESNTSTSSTSTSNSKTVRSTPFSSAGIIMTSLSQRNNKSASSYASSNSKCYNTADSCRKVHSTPSYLLTSSYTSEGVDYDCSLVSTKLKINDTNCVNNKHTTKSCLKTSVTTTIPTLEIKTARKSSSNTIGLHSYPTSSPNKSISSAPIIGYISSFKTIKTASPSYQTSDLTTITTITSLNNPGSTAVENTHESNDKSRKTSSNDISSKHSVIKETKDAVESSNKSHQTNTLKCSSIIIASSSHNSYESLGGTTLTLTLSKVYSPQNNDTLPFLEISEVNPSRTVLPESSKMMQYLTSTEERNKTARNTIATNIVSISTFHFEGEGNAIRMGYTQLLLMLIGIIVMNIGT
For B1, the “glycan array binding signal (z-score)” value [1] was -0.088, the “glycan array binding signal (z-score)” value (GlcNAc(b1-3)Gal(b1-4)Glc) was -0.256 and the “glycan array binding signal (z-score)” value [2] was -0.122. The “glycan array binding signal (z-score)” value [3] was -0.121, the “glycan array binding signal (z-score)” value [4] was 0.074 and the “glycan array binding signal (z-score)” value [5] was -0.046. For the same binder, the “glycan array binding signal (z-score)” value [6] was -0.21, the “glycan array binding signal (z-score)” value [7] was -0.058 and the “glycan array binding signal (z-score)” value [8] was 0.132. For the same binder, the “glycan array binding signal (z-score)” value [9] was 0.082, the “glycan array binding signal (z-score)” value [10] was -0.169 and the “glycan array binding signal (z-score)” value [11] was -0.161. The “glycan array binding signal (z-score)” value [12] was -0.022, the “glycan array binding signal (z-score)” value [13] was -0.029 and the “glycan array binding signal (z-score)” value [14] was 0.094.
